Consider 1 molecule from the supplement of paper PMC8728848.

Holding throughout (assay): glycan array binding signal (z-score within array); higher = stronger binding
Common to all, as to settings: glycan notation: IUPAC condensed, linker removed

Assay [1] concerns the target Gal(b1-4)GlcNAc(b1-2)Man(a1-3)[Gal(b1-4)GlcNAc(b1-2)Man(a1-6)]Man(b1-4)GlcNAc(b1-4)GlcNAc. The gist of the method: (§1)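 The binding signal is a Z-score computed within each array. Data were drawn from 3228 arrays in the Consortium for Functional Glycomics database, restricted to those with a known protein sequence. Scores were averaged over arrays of the same protein sequence at different concentrations or buffers, and over linkers, and negative values can be taken as non-binding.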

Assay [2] concerns the target Gal(b1-4)GlcNAc(b1-2)Man(a1-3)[Gal(b1-4)GlcNAc(b1-2)Man(a1-6)]Man(b1-4)GlcNAc(b1-4)[Fuc(a1-6)]GlcNAc. An outline of the steps: as §1
Assay [3] deals with Gal(b1-4)GlcNAc(b1-2)Man(a1-3)[Gal(b1-4)GlcNAc(b1-2)Man(a1-6)][Gal(b1-4)GlcNAc(b1-4)]Man(b1-4)GlcNAc(b1-4)[Fuc(a1-6)]GlcNAc. The gist of the method:
as §1

The target of assay [4] is Gal(b1-4)GlcNAc(b1-2)Man(a1-3)[Gal(b1-4)GlcNAc(b1-2)Man(a1-6)][GlcNAc(b1-4)]Man(b1-4)GlcNAc(b1-4)[Fuc(a1-6)]GlcNAc. An outline of the steps:
as §1

The target of assay [5] is Gal(b1-4)GlcNAc(b1-2)Man(a1-3)[GlcNAc(b1-2)Man(a1-6)]Man(b1-4)GlcNAc(b1-4)GlcNAc. The gist of the method: as §1
In assay [6] the target is Gal(b1-4)GlcNAc(b1-2)Man(a1-3)[GlcNAc(b1-4)][Gal(b1-4)GlcNAc(b1-2)Man(a1-6)]Man(b1-4)GlcNAc(b1-4)GlcNAc. The gist of the method:
as §1

The target in assay [7] is Gal(b1-4)GlcNAc(b1-2)Man(a1-3)[Man(a1-6)]Man(b1-4)GlcNAc(b1-4)GlcNAc. The gist of the method:
as §1

Assay [8] has as its target Gal(b1-4)GlcNAc(b1-2)Man(a1-6)Man(b1-4)GlcNAc(b1-4)GlcNAc. An outline of the steps:
as §1

Assay [9] concerns the target Gal(b1-4)GlcNAc(b1-2)Man(a1-6)[GlcNAc(b1-2)Man(a1-3)]Man(b1-4)GlcNAc(b1-4)GlcNAc. An outline of the steps:
as §1

In assay [10] the target is Gal(b1-4)GlcNAc(b1-2)Man(a1-6)[Man(a1-3)]Man(b1-4)GlcNAc(b1-4)GlcNAc. An outline of the steps:
as §1

Assay [11] addresses Gal(b1-4)GlcNAc(b1-2)[Gal(b1-4)GlcNAc(b1-4)]Man(a1-3)[Gal(b1-4)GlcNAc(b1-2)Man(a1-6)]Man(b1-4)GlcNAc(b1-4)GlcNAc. The gist of the method: as §1
For assay [12], the target named is Gal(b1-4)GlcNAc(b1-2)[Gal(b1-4)GlcNAc(b1-4)]Man(a1-3)[Gal(b1-4)GlcNAc(b1-2)[Gal(b1-4)GlcNAc(b1-6)]Man(a1-6)]Man(b1-4)GlcNAc(b1-4)GlcNAc. An outline of the steps: as §1
The target in assay [13] is Gal(b1-4)GlcNAc(b1-2)[Gal(b1-4)GlcNAc(b1-4)]Man(a1-3)[GlcNAc(b1-4)][Gal(b1-4)GlcNAc(b1-2)Man(a1-6)]Man(b1-4)GlcNAc(b1-4)GlcNAc. The gist of the method:
as §1

Assay [14] deals with Gal(b1-4)GlcNAc(b1-2)[Gal(b1-4)GlcNAc(b1-4)]Man(a1-3)[GlcNAc(b1-4)][Gal(b1-4)GlcNAc(b1-2)[Gal(b1-4)GlcNAc(b1-6)]Man(a1-6)]Man(b1-4)GlcNAc(b1-4)GlcNAc. The gist of the method: as §1
For assay [15], the target named is Gal(b1-4)GlcNAc(b1-2)[Gal(b1-4)GlcNAc(b1-6)]Man(a1-6)[Gal(b1-4)GlcNAc(b1-2)Man(a1-3)]Man(b1-4)GlcNAc(b1-4)GlcNAc. An outline of the steps:
as §1

Assay [16] has as its target Gal(b1-4)GlcNAc(b1-2)[Gal(b1-4)GlcNAc(b1-6)]Man(a1-6)[Gal(b1-4)GlcNAc(b1-2)Man(a1-3)]Man(b1-4)GlcNAc(b1-4)[Fuc(a1-6)]GlcNAc. An outline of the steps:
as §1

Assay [17] concerns the target Gal(b1-4)GlcNAc(b1-2)[Gal(b1-4)GlcNAc(b1-6)]Man(a1-6)[GlcNAc(b1-4)][Gal(b1-4)GlcNAc(b1-2)Man(a1-3)]Man(b1-4)GlcNAc(b1-4)GlcNAc. The gist of the method:
as §1

Assay [18] concerns the target Gal(b1-4)GlcNAc(b1-2)[Gal(b1-4)GlcNAc(b1-6)]Man(a1-6)[GlcNAc(b1-4)][Gal(b1-4)GlcNAc(b1-2)[Gal(b1-4)GlcNAc(b1-4)]Man(a1-3)]Man(b1-4)GlcNAc(b1-4)[Fuc(a1-6)]GlcNAc. The gist of the method:
as §1

In assay [19] the target is Gal(b1-4)GlcNAc(b1-3)Gal(b1-3)GalNAc. An outline of the steps:
as §1

Some of the results follow.

B1: Epa1 (Candida glabrata) (protein)
chain: MGSSHHHHHHSSGLVPRGSHMTSSNDISLASKDPTTFPLGCSPDITTPKKGLSMELYSYDFRKKGSYPCWDAAYLDPNYPRTGYKSHRLLAKVDGVTGNINFYYHATKGCTPQLGHLPASYNYPKPLTMTNFTMLLYGYFRPKVTGFHTFTISADDLLFVNFGAGNAFDCCRRDSSADHFGNYQAYAIWGSKTAKDELTVHLDAGVYYPIRLFYNNREYDGALSFTFKTESNENTVSDFSEYFFSLDDTEEGCPGLISYD
In the case of B1, the “glycan array binding signal (z-score)” value in assay [1] was 0.01; in [2], -0.125; in assay [3] it was -0.253; in [4] it was -0.284; in [5] it was -0.212; in assay [6] it was -0.209. Further, the “glycan array binding signal (z-score)” value is -0.115 in assay [7]; -0.208 in assay [8]; -0.193 in assay [9]; -0.169 in [10]; 0.625 in assay [11]; 1.18 in assay [12]. Moreover, the “glycan array binding signal (z-score)” value is -0.019 in [13]; 1.92 in [14]; 0.362 in assay [15]; 0.835 in [16]; 0.072 in [17]; 1.67 in assay [18]. The “glycan array binding signal (z-score)” value in [19] was -0.062.
